Source: the supplement of paper PMC12217912
Some of the results follow. Sequences were assembled here from the parent chain. Values near 0.05 are background.

B1: TEV protease; numbered along this chain (parent)
chain: MGESLFKGPRDYNPISSSICHLTNESDGHTTSLYGIGFGPFIITNKHLFRRNNGTLVVQSLHGVFKVKDTTTLQQHLVDGRDMIIIRMPKDFPPFPQKLKFREPQREERICLVTTNFQTKSMSSMVSDTSCTFPSGDGIFWKHWIQTKDGQCGSPLVSTRDGFIVGIHSASNFTNTNNYFTSVPKNFMELLTNQEAQQWVSGWRLNADSVLWGGHKVFMVKPEEPFQPVKEATQL

Variants of: B1
Experiment: raw area under fraction-flipped curve 0-4 h after induction (AUC4h, not background-subtracted), DNA-recorder readout of cleavage of the substrate (dimensionless); higher = more cleavage of the substrate by the protease variant
Conditions: temperature: 34 °C; time window: 0-4 h after rhamnose induction
Method: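 In vivo DNA recorder in E. coli TOP10(DE3) ΔrhaA at 34 °C. Each TEVp single-site mutant (parent TEVp 0) is paired with a single-site variant of the 7-mer TEVs (canonical ENLYFQ|S). The substrate sits between flexible linkers in a Bxb1-sfGFP-TEVs-SsrA fusion, so cleavage stabilises Bxb1 and speeds flipping of a recombination array, read by NGS. The value is the raw area under the fraction-flipped curve over 0-4 h after rhamnose induction (AUC4h), with ≥20 reads per time point. It is not background-subtracted; inactive controls average about 0.047.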
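Further: Bxb1 expression induced with 0.2% (w/v) L-rhamnose at OD600 near 0.5, cultures sampled hourly, flipped fraction per protease–substrate barcode pair counted by paired-end Illumina sequencing.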

Variant	area with substrate ENLAFQS	area with substrate ENLCFQS	area with substrate ENLEFQS	area with substrate ENLFFQS	area with substrate ENLGFQS	area with substrate ENLHFQS	area with substrate ENLIFQS	area with substrate ENLKFQS	area with substrate ENLMFQS	area with substrate ENLRFQS	area with substrate ENLWFQS	area with substrate ENLDFQS	area with substrate ENLLFQS	area with substrate ENLNFQS	area with substrate ENLPFQS	area with substrate ENLQFQS	area with substrate ENLSFQS	area with substrate ENLTFQS	area with substrate ENLVFQS
P222I	0.0685	0.0627	0.0511	0.0771	0.0668	0.0568	0.0784	0.0822	0.0656	0.0659	0.0572	–	–	–	–	–	–	–	–
Q198T	0.0518	0.0716	0.0735	0.0816	0.0518	0.0788	–	0.0691	–	–	0.0809	0.0571	0.082	0.0795	0.0658	0.0659	0.0525	–	–
Q198L	0.039	0.0574	0.0591	0.0527	–	0.0692	–	0.0722	0.0668	–	0.0738	0.0534	–	–	0.0563	–	0.0615	–	–
Q198A	0.0717	0.0687	–	0.0806	–	0.0596	–	–	–	0.103	–	0.0605	0.0935	0.0623	0.0905	–	0.051	0.086	0.0735
C20W	–	0.0444	0.0464	0.0495	0.0374	0.0409	–	0.0438	–	0.0389	0.0382	0.0355	0.0438	0.0523	0.0493	–	0.0534	0.0475	–
C20L	–	0.0662	0.0656	0.082	0.0727	0.0348	0.0978	0.0805	0.0688	0.072	0.0648	0.0797	0.063	0.0611	0.0602	0.0758	0.0565	–	–
F187R	0.0539	0.0463	0.0585	0.0548	–	0.0484	0.0595	0.049	–	0.0544	–	0.0696	0.0524	0.0578	0.0737	0.06	–	–	0.0634
M219T	0.0529	–	0.0637	0.0759	–	–	0.0657	0.0703	0.0752	0.0917	–	0.0464	0.0814	0.0669	0.0627	–	0.0592	–	0.0804
K221L	0.0561	0.0627	0.0528	0.066	–	0.0763	0.0849	0.0831	0.0654	0.0837	–	0.0677	–	0.0564	0.055	0.0712	0.0553	–	0.087
E3C	–	0.0845	–	0.0962	–	0.103	–	–	–	0.0804	0.0985	0.0797	–	0.0516	–	0.0627	–	–	0.0701
E3F	–	0.0677	–	0.094	–	–	0.108	0.093	–	0.0774	–	0.0665	–	0.0711	–	–	0.076	–	–
A196D	0.0637	0.0795	0.07	0.082	0.0555	0.0526	–	0.0799	–	0.0693	–	0.047	0.0818	0.0816	0.0607	0.0636	0.0578	–	–
A196W	0.0597	0.068	0.073	0.085	0.0591	–	0.0569	–	–	0.0649	–	0.0835	–	–	0.0433	–	0.062	–	–
A196F	0.0627	–	0.0665	0.0908	–	0.074	0.0948	0.0826	0.0795	0.07	0.0602	0.0563	–	0.0739	0.0517	0.0675	0.0577	–	0.101
S201G	0.0653	0.0661	–	0.0591	–	0.0515	0.0662	0.052	0.0677	0.0705	–	–	0.0622	0.068	0.0482	0.0593	0.0623	0.0647	0.0762
E231N	0.0769	0.0862	0.0632	0.0869	–	0.0895	0.0819	0.082	0.0761	–	–	0.0528	0.0718	0.0987	0.0666	0.0702	0.0678	–	0.0986
E231V	0.0719	0.0585	0.0519	0.0621	0.0734	0.0711	–	0.0972	–	0.0707	–	0.0583	–	0.065	0.057	0.0894	0.0736	–	0.0837
L211M	0.0826	–	0.0649	0.0683	0.0636	0.0669	0.0653	0.0729	0.0639	0.0846	–	0.0448	0.0761	0.0708	0.0701	0.0539	0.076	–	0.0815
W203V	0.0619	0.055	0.0546	0.0333	0.0505	0.0558	0.0569	0.0622	–	–	0.0544	0.0601	0.079	0.0603	0.065	0.0578	0.0589	–	0.0732
G213R	0.066	0.0689	0.0595	0.061	0.0746	0.055	0.0534	0.0653	0.0615	–	0.0499	0.0712	0.0681	0.0659	0.0643	0.0658	0.0583	–	0.0461
Q234T	0.0663	–	0.0666	0.0866	0.0484	–	–	0.076	0.032	0.073	0.0821	0.0697	–	0.065	0.0797	0.0796	0.0645	–	0.0839
Q234V	0.0676	–	0.0766	0.0722	0.0576	–	–	0.0658	0.0711	0.0741	–	0.0664	0.0661	0.0707	–	0.0813	0.0635	–	–
Q234S	0.0649	–	0.0613	0.0741	0.0799	0.079	–	0.0768	–	0.0735	0.0681	0.0639	0.0581	0.0626	0.053	0.0569	0.0717	0.0584	–
P225C	0.0603	–	0.0675	–	0.0774	0.0709	0.0805	0.102	0.0642	0.0629	0.0559	0.0642	0.0647	0.0554	0.0674	0.0633	0.0785	–	–
P225K	0.0751	0.13	0.0643	0.0858	–	0.073	–	0.111	–	–	0.0649	0.0512	0.0767	–	0.0676	0.059	0.0775	–	–
V210N	0.0547	–	–	0.0725	–	0.0629	–	0.0702	0.0554	0.0587	–	0.0497	–	0.0602	0.0575	–	0.0722	–	0.045
